Experimental data from PMC6919601, “Identification of Plasmodium dipeptidyl aminopeptidase allosteric inhibitors by high throughput screening” (PLoS ONE, 2019).
Among all 110,000 compounds or so, about 230 (0.21%) showed an effect of 50% or more. Some of the results follow.

These compounds were tested against DPAP1 (Plasmodium falciparum, UniProt Q8IIJ9) (assay: primary screen, percent inhibition; read by cleavage of a fluorogenic dipeptide substrate; higher = more effect of the substance).
Parameters: species or system P. falciparum D10 trophozoite lysates; single well
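Note: 30 min substrate incubation versus DMSO and 10 µM JCP410 controls.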

Chain of DPAP1 (Q8IIJ9 whole entry, looked up): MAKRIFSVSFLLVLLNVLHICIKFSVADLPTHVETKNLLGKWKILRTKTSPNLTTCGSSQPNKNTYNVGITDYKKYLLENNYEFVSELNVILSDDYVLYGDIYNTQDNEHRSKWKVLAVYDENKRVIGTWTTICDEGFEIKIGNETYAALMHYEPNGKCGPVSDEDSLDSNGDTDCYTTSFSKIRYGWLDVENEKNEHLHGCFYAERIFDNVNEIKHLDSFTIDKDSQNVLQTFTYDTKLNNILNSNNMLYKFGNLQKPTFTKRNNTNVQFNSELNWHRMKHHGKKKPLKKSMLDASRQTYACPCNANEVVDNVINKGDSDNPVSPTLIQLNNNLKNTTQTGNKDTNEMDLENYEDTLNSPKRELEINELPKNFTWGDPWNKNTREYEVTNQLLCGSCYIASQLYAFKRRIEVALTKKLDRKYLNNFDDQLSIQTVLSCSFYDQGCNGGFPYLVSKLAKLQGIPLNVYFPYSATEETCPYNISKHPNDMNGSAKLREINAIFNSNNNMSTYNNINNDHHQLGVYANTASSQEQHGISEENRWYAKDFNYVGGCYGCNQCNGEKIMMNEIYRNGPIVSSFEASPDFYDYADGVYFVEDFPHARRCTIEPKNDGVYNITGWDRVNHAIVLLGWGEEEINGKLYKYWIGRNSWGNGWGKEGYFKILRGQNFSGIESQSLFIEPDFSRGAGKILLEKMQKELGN

| SMILES | % Inhibition @ 10 uM [%] |
| --- | --- |
| O=C(CCSCCC(=O)N1CCc2ccccc21)N1CCc2ccccc21 | 3.67 |
| Cc1[nH]c(-c2ccc(F)cc2)cc1C(=O)N1CCN(C2CCCCC2)CC1 | 8.37 |
| Cc1nc(NC(=O)CC23CC4CC(CC(C4)C2)C3)sc1-c1ccccc1 | 0.776 |
| CCN(CC)CCCN1C(=O)C(O)=C(C(C)=O)C1c1ccc(OC)cc1OC (stereo not drawn) | 1.52 |
| COc1ccc(-c2nc(CSCC(=O)NCc3ccco3)c(C)o2)cc1 | -2.85 |
| CN(C(=O)c1cccs1)c1ccccc1 | 3.85 |
| Cn1c(=O)c(C(=O)NC2CCCCCC2)c(O)c2ccccc21 | 2 |
| COc1ccc(-c2noc(CCCOc3ccccc3)n2)cc1OC | 1.72 |
| O=C(Cn1c(=O)sc2ccccc21)Nc1cc(Cl)ccc1Cl | -15.4 |
| N#Cc1c(SCC(=O)O)nc2c(c1-c1cccs1)CCCC2 | 43.2 |
| CCN1CCN(C(=O)CC(c2cccs2)N2Cc3ccccc3C2=O)CC1 (stereo not drawn) | -2.37 |
| Cc1cccc(OC(C)C(=O)N(Cc2cccs2)C2CCS(=O)(=O)C2)c1C (stereo not drawn) | -13.2 |
| CCCCCn1c(=O)c(C(=O)Nc2ccncc2)c(O)c2ccccc21 | -2.88 |
| CCOc1ccc(CCNCc2c(C(=O)O)c(C)n(Cc3ccccc3C)c2C)cc1 | -5.49 |
| CCCCCC1CCC(c2ccc(C(=O)Nc3ccc(Cl)c4c3C(=O)c3ccccc3C4=O)cc2)CC1 (stereo not drawn) | -7.02 |
| N#CC(c1nc2ccccc2nc1OCCO)S(=O)(=O)c1ccccc1 (stereo not drawn) | -1.45 |
| c1ccc(N2CCN(C3CC4CCC3C4)CC2)cc1 (stereo not drawn) | -0.414 |
| CCOC(=O)c1[nH]c(C)c(Cc2ccc(OCC)cc2)c1C | 2.58 |
| COc1ccc(C2CC(=O)N=C(NC(=O)c3ccccc3F)N2)cc1 (stereo not drawn) | 1.13 |
| CC(C)CCC(C(=O)NCC#N)c1ccc(-c2ccccc2)cc1 (stereo not drawn) | 0.744 |
| CCOc1cc(CNCCc2ccccc2F)ccc1OC | -2.22 |
| CC(CCc1ccccc1)NC(=O)c1cn(C)c(=O)c2ccccc12 (stereo not drawn) | -6.13 |
| Cc1ccc(-c2noc(-c3nnn(-c4ccc(C(F)(F)F)c(Cl)c4)c3N)n2)cc1 | 3.98 |
| NC(=O)c1c(NC(=O)c2cccc(F)c2)sc2c1CCCCCC2 | 10.3 |
| COCCNC(=O)Cn1nc(C(F)(F)F)c(Br)c1C | -6.57 |
| CCOc1ccc(N2C(=O)CC(NCCN3CCOCC3)C2=O)cc1 (stereo not drawn) | 4.83 |

| SMILES | % Inhibition @ 10 uM [%] |
| --- | --- |
| Clc1ccccc1CN1CCN(c2ccccc2)CC1 | -3.65 |
| CC(=O)c1ccc2c(c1O)CCC(c1ccccc1)O2 (stereo not drawn) | -6.62 |
| Cc1ccc(NC2=C(Cl)C(=O)N(c3ccccc3)C2=O)c(C)c1 | 0.385 |
| CCCNc1nc(Cl)nc(NCc2cccnc2)n1 | -7.3 |
| CC(Cc1ccc(F)cc1)N1CCN(c2ccccc2F)CC1 (stereo not drawn) | -1.41 |
| Cc1[nH]nc(Nc2ccc(Br)cc2)c1[N+](=O)[O-] | 4.44 |
| CCOc1ccccc1C(=O)N1CCCCC1C (stereo not drawn) | 3.21 |
| Cc1cccc(C(=O)Nc2ccc(NC(=O)c3cc4ccccc4o3)cc2)c1 | -2.99 |
| COc1ccc(C2OCC3(CO)C(C)C=C(C)C2C3C)cc1 (stereo not drawn) | 3.61 |
| CC(C)C[C@H](NC(=O)c1cc(-c2ccccc2Cl)cc(-c2ccccc2Cl)c1)C(=O)NCC#N | -5.2 |
| NC(=O)c1c(NC(=O)c2cccnc2Cl)sc2c1CCCC2 | 5.73 |
| O=C(NCCc1ccc(Cl)cc1)c1cc2ccccn2n1 | -0.0115 |
| O=C(c1ccc([N+](=O)[O-])o1)N1CCN(C/C=C/c2ccccc2)CC1 | -1.5 |
| COc1ccc(-c2nc(C#N)c(NCC(C)C)o2)cc1 | -1.43 |
| Cc1cccc(OCC(=O)Nc2ccc(Br)c(Cl)c2)c1 | -0.173 |
| CN1CCN(C(=O)CC(c2ccccc2)c2ccccc2)CC1 | -1.99 |
| Cc1ccc(C(=O)N2N=C(C3CCCCC3)CC2(O)C(F)(F)F)o1 (stereo not drawn) | 0.583 |
| CCCCN(CCCC)S(=O)(=O)c1cccc2c1C(=O)c1ccccc1C2=O | 1.37 |
| CCN(CC)CCC(C)OC(=O)c1ccc(O)cc1O (stereo not drawn) | 0.962 |
| C=CCSc1nc(C)c2cc(OCC)ccc2n1 | -8.72 |
| O=C(Nc1cccc2c1[nH]c1ccccc12)C(F)(F)F | 10.7 |
| CCOc1ccc(NC(=O)/C=C/c2cccc([N+](=O)[O-])c2)cc1 | 20.2 |
| CCCC1=C(C(=O)OCC)C(c2ccc3c(c2)OCO3)NC(=O)N1 (stereo not drawn) | 5.16 |
| CC(=O)c1cc(-c2ccccc2)n(CCC(=O)NCc2ccccn2)c1C | -7.35 |
| CC1(C)CC(=O)C(C(C2=C(O)CC(C)(C)CC2=O)c2cccc(O)c2)C(=O)C1 (stereo not drawn) | -3.77 |
| CCNC1CCCc2c1[nH]c1ccc(C)cc21 (stereo not drawn) | -1.38 |

| SMILES | % Inhibition @ 10 uM [%] |
| --- | --- |
| Cc1c(C#N)c2cc([N+](=O)[O-])ccc2n1Cc1ccccc1 | -5.78 |
| COc1ccc(CCNC2CC(=O)N(c3ccc(C)cc3)C2=O)cc1OC (stereo not drawn) | -2.82 |
| CC1=C(C(=O)Nc2ccccc2)C(c2ccco2)C(C#N)=C(SCC(=O)Nc2cccc(C)c2C)N1 (stereo not drawn) | -9.39 |
| COc1cc(C)c(Cl)cc1S(=O)(=O)NCc1ccco1 | 0.245 |
| C=CCc1c(C)nc2ccccc2c1O | 4.32 |
| O=S(=O)(Nc1nccs1)c1ccc(-n2cccc2)cc1 | -2.45 |
| COc1ccc2c(C)c(Cc3ccccc3)c(=O)oc2c1C | 8.98 |
| COc1ccc(C2C(C#N)=C(N)Oc3[nH]nc(-c4ccc(Cl)cc4)c32)cc1OC (stereo not drawn) | 4.75 |
| COc1cccc(CN(C(=O)c2ccc(OC)c(Cl)c2)C2CCS(=O)(=O)C2)c1 (stereo not drawn) | -3.12 |
| O=C(Nc1ccccn1)c1sc2cc(F)ccc2c1Cl | -3.27 |
| O=C(Nc1ccccn1)c1ccc(-c2ccc(C(=O)Nc3ccccn3)cc2)cc1 | 1.28 |
| COc1ccccc1NC1=C(Cl)C(=O)N(c2ccccc2)C1=O | 5.66 |
| O=S(=O)(NC1c2ccccc2Oc2ccccc21)c1ccccc1 | -1.6 |
| Cc1cc(C)cc(NC(=O)C(C)N2C(=O)c3ccccc3C2=O)c1 (stereo not drawn) | -1.88 |
| O=Cc1cccn1CC(=O)O | -3.78 |
| CC1=C(C(=O)Nc2ccc(Cl)cc2)C(c2ccncc2)n2ncnc2N1 (stereo not drawn) | -4.02 |
| O=C1C(Br)=CC(=NS(=O)(=O)c2ccccc2)C=C1Br | 14.4 |
| CCN(CC)c1nc(-c2ccccc2F)nc2ccccc12 | 4.8 |
| CCOC(=O)N1CCN(C(=O)c2ccc(CS(=O)(=O)c3c(Cl)cccc3Cl)o2)CC1 | -3.32 |
| COc1cccc(C2NC(S)=NC(C)=C2c2nc(-c3ccccc3)no2)c1 (stereo not drawn) | 4.85 |
| c1ccc(CCN2CCC(N3CCN(c4ccccc4)CC3)CC2)cc1 | 1.57 |
| COCCNC(=S)NCc1ccc2c(c1)cc(C)n2C | -1.89 |
| CCCOc1ccc2ncc(C(=O)O)c(O)c2c1 | 4.85 |
| O=C(CN1CCCCC1)Nc1c2c(nc3ccccc13)CCC2 | -3.16 |
| C=CCn1c(=N)n(CC(O)C(C)(C)C)c2ccccc21 (stereo not drawn) | -1.88 |
| CCc1nc2ccccc2n1CCCOc1ccc(Cl)cc1 | -2.28 |

| SMILES | % Inhibition @ 10 uM [%] |
| --- | --- |
| CCNC(=O)C1CCN(c2nnc(C)c3c(C)n(-c4ccccc4)nc23)CC1 | -7.13 |
| O=c1sc2ccccc2n1Cc1ccccc1Cl | -8.2 |
| Cc1ccc(C(=O)c2c(N)sc3c2CCCC3)cc1 | 4.16 |
| CC(C)C[C@H](NC(=O)N1CCC(C)CC1)C(=O)NCC#N | -1.82 |
| CC(C)Cc1ccc(S(=O)(=O)N2CC(C)CC(C)C2)cc1 (stereo not drawn) | -1.2 |
| Cn1c2ccccc2c2cnn(CC(=O)N3CCc4ccccc4C3)c(=O)c21 | -3.67 |
| COc1cc(C2Nc3ccccc3C(=O)N2Cc2ccccc2)ccc1O (stereo not drawn) | 2.79 |
| C=CCNC(=O)C1CCN(S(=O)(=O)c2ccc(Cl)cc2)CC1 | 3.58 |
| O=C(CSc1nc(O)c2cnn(-c3ccccc3)c2n1)N1CCCC1 | -5.22 |
| COc1ccc2oc(C(=O)c3ccc(F)cc3)c(NC(C)=O)c2c1 | 3.34 |
| CC(C)(C)c1ccc(C2=N/C(=C\c3cccs3)C(=O)O2)cc1 | -1.51 |
| Cc1c(C)n(C(=O)CSc2nccn2C)c2ccccc12 | -7.45 |
| Cc1ccc(C2C3=C(O)c4ccccc4C3=Nc3c2c(=O)[nH]c(=O)n3Cc2ccccc2)cc1 (stereo not drawn) | -2.75 |
| OC1=C2C(=Nc3ccccc3SC2c2ccccc2)c2ccccc21 (stereo not drawn) | -2.28 |
| Cc1nn(CC(=O)NCCCN(C)C2CCCCC2)c(=O)c2nn(-c3ccccc3)c(C)c12 | -2.52 |
| CCOC(=O)C1=C(C)N=c2s/c(=C\c3cccc(Br)c3)c(=O)n2C1c1ccccc1 (stereo not drawn) | 1.84 |
| CCOc1ccc(NC(=O)CN2C(=O)S/C(=C/c3cc(C)n(-c4ccccn4)c3C)C2=O)cc1 | -10.9 |
| O=C(Nc1cccnc1Cl)c1cc2nc(C(F)F)cc(C(F)F)n2n1 | -0.318 |
| COc1ccc(CCNC(=O)c2cccnc2C(=O)O)cc1OC | 2.22 |
| COc1cccc(-c2[nH]nc3c2C(c2ccc(OC)c(Br)c2)C(C#N)=C(N)O3)c1 (stereo not drawn) | 1.57 |
| CC1CC2(C)Oc3ccccc3C3OCC1(CO)C(C)C32 (stereo not drawn) | 1.57 |
| CC(C)C(NS(=O)(=O)c1cccc2nsnc12)C(=O)NCCc1ccc(Cl)cc1 (stereo not drawn) | -4.1 |
| CCOc1ccc(C2C3=C(O)CCCC3=NC(C)=C2C(=O)Nc2ccccc2OC)cc1 (stereo not drawn) | -2.64 |
| CC(C)c1ccc(-c2c(N3CCCCCC3)c(=O)c2=O)cc1 | 2.24 |
